Measurements from the RNAGym collection of RNA variant scans (doi:10.1101/gad.245936.114).
This sample is rich in variants without activity.

B1: tRNA (parent)
chain: CUCUCGGUAGCCAAGUUGGUUUAAGGCGCAAGACUUUAAUUUAUCACUACGAAAUCUUGAGAUCGGGCGUUCGACUCGCCCCCGGGAGAUUUUUUCCUCGAGCAA

Variants of: B1
Assay: nonsense suppression (GFP-seq) (ratio to wild type); higher = more function; SUP4oc tRNA, yeast GFP reporter sort-seq
In short: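 Raffinose/galactose medium with 80 mg/L adenine was used to grow yeast carrying genome-integrated tRNA variants (~3% random-mutation library), RFP, and a galactose-driven GFP ochre reporter. Cells went into GFP/RFP bins, which were Illumina-sequenced, and variants with ≥100 reads and ≥30 cells were scored. Nonsense suppression (GFPSEQ) is the per-bin median GFP/RFP weighted by estimated cell share and expressed relative to the unmutated parent tRNA.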

U21A G26C C34A A89C and U20G A54G G78C cannot be ordered by nonsense suppression: at most 0.026 for the first, at most 0.026 for the second.

G19U G26C A30G A74U and U21A G73C cannot be ordered by nonsense suppression: at most 0.026 for the first, at most 0.026 for the second.

U20G C56A and U20G C56G cannot be ordered by nonsense suppression: at most 0.026 for the first, at most 0.026 for the second.

First: U20C G66C G78U
Second: U21A G85A
The nonsense suppression of the first is lower: at most 0.026 for the first, 1.06 for the second.

U21G C64U A74U and G19U U63C C64G cannot be ordered by nonsense suppression: at most 0.026 for the first, at most 0.026 for the second.

U21G G61A U63G C75U A87U and U20G A24U U55C U57G cannot be ordered by nonsense suppression: at most 0.026 for the first, at most 0.026 for the second.

U20A G65A and G19U U21G U22C G66U cannot be ordered by nonsense suppression: at most 0.026 for the first, at most 0.026 for the second.

Compared with U21G A60C, U21C G25C C34A U70C A74G is lower in nonsense suppression: 0.0285 for the first, at most 0.026 for the second.

U20A U71G and U20C U35A cannot be ordered by nonsense suppression: at most 0.026 for the first, at most 0.026 for the second.

U21C A62C G66U G67A G86A and U20C C29A C72U cannot be ordered by nonsense suppression: at most 0.026 for the first, at most 0.026 for the second.

U20G A24U C56A A62C C77U and U21A A54U G78U cannot be ordered by nonsense suppression: at most 0.026 for the first, at most 0.026 for the second.

First: U20A U63C
Second: U21C C29G U35C C56A
The nonsense suppression of the first is higher: 0.191 for the first, at most 0.026 for the second.

U20G A31C and G19U G73U cannot be ordered by nonsense suppression: at most 0.026 for the first, at most 0.026 for the second.

U20G G59C C64A G85U and U20C G25U G65C cannot be ordered by nonsense suppression: at most 0.026 for the first, at most 0.026 for the second.

U21A A23G G32U G61A G84C and U21G A24G C27U G78U cannot be ordered by nonsense suppression: at most 0.026 for the first, at most 0.026 for the second.

U20A C75U A89U and G19U U70A C80A cannot be ordered by nonsense suppression: at most 0.026 for the first, at most 0.026 for the second.

Compared with U20C C29G A31G, U21C G67A is higher in nonsense suppression: at most 0.026 for the first, 0.0282 for the second.

First: G19U U55C U63A
Second: U21C A60U C68U
The nonsense suppression of the first is lower: at most 0.026 for the first, 1.05 for the second.

U20G G32U U70A and U21G U63G U76A cannot be ordered by nonsense suppression: at most 0.026 for the first, at most 0.026 for the second.

U20C A23G C29U A54U and U21C A54U U57C G59A A89G cannot be ordered by nonsense suppression: at most 0.026 for the first, at most 0.026 for the second.

U21G U57A and U20C A23U U70C cannot be ordered by nonsense suppression: at most 0.026 for the first, at most 0.026 for the second.

Compared with U20C U55C, U21G A60U G78C is lower in nonsense suppression: 0.0996 for the first, at most 0.026 for the second.

First: U21C G78U
Second: U21A U70G
The nonsense suppression of the first is higher: 0.442 for the first, at most 0.026 for the second.

Going from U20G A30U to U20G A54G G73U G84C, the nonsense suppression falls from 0.444 to at most 0.026.

G19U U58G and U20C G32U G67U cannot be ordered by nonsense suppression: at most 0.026 for the first, at most 0.026 for the second.

Compared with U21G U76C, U21A G69C is lower in nonsense suppression: 0.861 for the first, at most 0.026 for the second.

U20G U55C C56G U63A G66A and U20C C68A A74G cannot be ordered by nonsense suppression: at most 0.026 for the first, at most 0.026 for the second.

Going from U21A A24G A62C G65A G88C to U21G U22C C82U, the nonsense suppression rises from at most 0.026 to 0.199.

Going from U20G U21C to U20G C80U, the nonsense suppression falls from 0.761 to 0.202.

G19U U22C and U21C G59U cannot be ordered by nonsense suppression: at most 0.026 for the first, at most 0.026 for the second.

U20A G84C and U20C U21G C27U G84C cannot be ordered by nonsense suppression: at most 0.026 for the first, at most 0.026 for the second.

Going from U20G A30C A60G to U20C U21C, the nonsense suppression rises from at most 0.026 to 1.15.

G19U G28A C56G and U20A G59C G86U cannot be ordered by nonsense suppression: at most 0.026 for the first, at most 0.026 for the second.

Compared with U21A A54U U76C, U20A G65C G69C G73A C75G is lower in nonsense suppression: 0.751 for the first, at most 0.026 for the second.

U21A G26C U58G and U21G G32A G61U cannot be ordered by nonsense suppression: at most 0.026 for the first, at most 0.026 for the second.

U20A U58A G67C A89G and U20A U58A G67C A89U cannot be ordered by nonsense suppression: at most 0.026 for the first, at most 0.026 for the second.

G19U G25U C56U and U21A G32U U71G G85C cannot be ordered by nonsense suppression: at most 0.026 for the first, at most 0.026 for the second.

U21G U58A G59A G61A U63G G67C and U20G A24U A30U G86C cannot be ordered by nonsense suppression: at most 0.026 for the first, at most 0.026 for the second.

U20C G84U G86C and U20G C81G cannot be ordered by nonsense suppression: at most 0.026 for the first, at most 0.026 for the second.

U21G G65A A74U and U20G G32C C68U cannot be ordered by nonsense suppression: at most 0.026 for the first, at most 0.026 for the second.

U20G U21G A30U and U21A G65C U71A G78U cannot be ordered by nonsense suppression: at most 0.026 for the first, at most 0.026 for the second.

U21G A31G G67U and G19U U55G cannot be ordered by nonsense suppression: at most 0.026 for the first, at most 0.026 for the second.
